Some of the results follow. Values were computed here from the reads of four pooled replicates and scatter widely.
The sequences below were run against T1, Pho4 (S. cerevisiae) (UniProt P07270) (assay: relative binding free energy (BET-seq); higher = weaker binding). Settings: reference: library average.
T1 sequence: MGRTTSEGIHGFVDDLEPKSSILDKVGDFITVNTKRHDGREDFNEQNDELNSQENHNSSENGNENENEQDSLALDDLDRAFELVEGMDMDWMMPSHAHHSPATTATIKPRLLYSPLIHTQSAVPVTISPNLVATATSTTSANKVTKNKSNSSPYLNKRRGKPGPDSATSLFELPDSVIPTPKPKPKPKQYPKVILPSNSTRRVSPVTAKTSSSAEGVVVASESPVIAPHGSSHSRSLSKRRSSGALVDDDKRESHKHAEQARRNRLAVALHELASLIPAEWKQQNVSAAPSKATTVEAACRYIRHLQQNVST

Row | Sequence | relative binding free energy [kcal/mol]
1 | GTTAGCACGTGAGTAT | 0.21
2 | CAATACACGTGGGGGA | -0.03
3 | GGTGTCACGTGATTGT | 0.27
4 | AGTGGCACGTGCTGGG | -0.18
5 | AGCAGCACGTGGTGGG | -0.2
6 | GTGTTCACGTGGGAGC | 0.21
7 | TGTTCCACGTGGTGAG | 0.09
8 | TTGGTCACGTGGCAAA | 0.21
9 | TCCTTCACGTGTGTGG | 0.18
10 | GCTGTCACGTGTCGTG | 0.11
11 | TAGAGCACGTGTGGTT | 0.04
12 | CTGAGCACGTGATGTT | 0.04
13 | TGATGCACGTGTAGGC | 0.02
14 | CTTTGCACGTGTTGTC | 0
15 | ATTAACACGTGGTTTA | -0.04
16 | TGTGACACGTGATAAG | 0.04
17 | TGTAGCACGTGTAAGG | 0.01
18 | CGATACACGTGGGGTG | -0.16
19 | GTAGGCACGTGTTCGG | 0.05
20 | AATGTCACGTGCAGTA | 0.18
21 | TAGTGCACGTGTAATG | 0.14
22 | TGGGTCACGTGATACG | 0.29
23 | TTTAGCACGTGGAGAG | -0.06
24 | AAAGTCACGTGGATTG | -0.04
25 | GACGTCACGTGGGCTG | 0.02

Row | Sequence | relative binding free energy [kcal/mol]
26 | GATAGCACGTGTTTTG | 0
27 | GTAGGCACGTGCTATG | -0.16
28 | GCGGTCACGTGTTGTG | 0.02
29 | TTTGCCACGTGGATAT | -0.06
30 | ACGGGCACGTGTTAAG | -0.07
31 | TATGACACGTGGCAGT | -0.05
32 | CATATCACGTGTTTTT | 0.13
33 | ATGCACACGTGTTGGT | 0.07
34 | ATGTCCACGTGTTAGG | -0.01
35 | ACGGACACGTGAGGTG | 0.32
36 | GGATTCACGTGTTGGA | 0.18
37 | TACAGCACGTGTGGAT | -0.02
38 | GAAGTCACGTGATATA | 0.34
39 | TTGTGCACGTGGAGGA | -0.03
40 | GTTTGCACGTGCTAGT | -0.06
41 | TAGCTCACGTGTATTG | 0.18
42 | ATGAGCACGTGAGTTA | 0.18
43 | GAAGTCACGTGTGGCG | 0.11
44 | GGGTTCACGTGGGTCC | 0.25
45 | GAGTGCACGTGAGAAG | 0.35
46 | ATGAACACGTGAGTGT | 0.35
47 | GTGGGCACGTGTATAG | -0.04
48 | ACATTCACGTGGTGGA | 0.26
49 | AGTATCACGTGAGTAA | 0.3
50 | AAGGTCACGTGTTTCA | 0.2

Row | Sequence | relative binding free energy [kcal/mol]
51 | TCTTTCACGTGGATAG | 0.19
52 | CGGTACACGTGTAGGG | -0.06
53 | GTGGGCACGTGAGGAG | 0.18
54 | TAGTTCACGTGGTCGG | 0.02
55 | TTAAGCACGTGGATGT | -0.05
56 | CAGGGCACGTGGGAGC | -0.21
57 | AGGAGCACGTGTGCTG | -0.14
58 | TGTGACACGTGGTCAT | -0.16
59 | ATGCTCACGTGGTAGG | 0.06
60 | GCATTCACGTGTTTGA | 0.15
61 | GGCATCACGTGGTAGT | 0.14
62 | GGGGCCACGTGTGTTA | -0.08
63 | TAAAACACGTGTATGG | 0
64 | GTTCGCACGTGAGGGC | 0.15
65 | AGGCACACGTGTTGGG | -0.02
66 | AGTGGCACGTGGTCGG | -0.24
67 | ATCAGCACGTGGAGTG | -0.12
68 | GGTAGCACGTGAGTGT | 0.22
69 | TTGAGCACGTGTGGTT | 0.06
70 | GATAGCACGTGATGTG | 0.14
71 | ATGATCACGTGTGGGA | 0.13
72 | AGGGCCACGTGTGCGG | -0.11
73 | GATAACACGTGTTTGT | 0.13
74 | TGCATCACGTGGCGTG | 0.08
75 | GAGTGCACGTGTATGT | 0.09

Row | Sequence | relative binding free energy [kcal/mol]
76 | ATAGTCACGTGTTGGC | 0.12
77 | TGGTTCACGTGGTTCC | 0.24
78 | GGAATCACGTGAAGTT | 0.29
79 | GGGTTCACGTGTAACA | 0.44
80 | TTGGGCACGTGCTGAT | -0.1
81 | TCGGACACGTGTAGTT | 0.17
82 | TATGACACGTGTTAAG | 0.02
83 | GGTGACACGTGCTTTT | -0.06
84 | TTTTACACGTGTCATT | -0.01
85 | CCAGTCACGTGGGTGG | 0.1
86 | AGGCACACGTGAGAGG | 0.21
87 | GTCAGCACGTGGGTTA | -0.13
88 | GCGAACACGTGGGGGC | 0
89 | TAGTTCACGTGGACGT | 0.2
90 | TGAGACACGTGCAGGT | -0.02
91 | CTGGCCACGTGGTTGT | -0.02
92 | GATGACACGTGGAGGG | 0.12
93 | AGAGGCACGTGTTAAA | -0.07
94 | TATAGCACGTGGTGGA | -0.2
95 | TTCTTCACGTGTTTCG | 0.31
96 | TCGCGCACGTGGAGAG | 0.13
97 | ATTTCCACGTGGGATG | -0.1
98 | TGAGTCACGTGGAGGC | 0.14
99 | CGGGGCACGTGGTGAG | -0.14
100 | CGGCTCACGTGGGAGG | 0.1

Row | Sequence | relative binding free energy [kcal/mol]
101 | AGGTCCACGTGTGAAT | 0.18
102 | TAGTTCACGTGGGGGA | 0.08
103 | TTGGTCACGTGTACTG | 0.18
104 | AGAAGCACGTGTTAAG | 0.05
105 | AGTCTCACGTGAGGTT | 0.28
106 | GAGGGCACGTGAACGT | 0.12
107 | CTATTCACGTGAGTGT | 0.38
108 | TGTTGCACGTGGGTCC | 0
109 | GAGGTCACGTGGGTGC | -0.01
110 | TTGCACACGTGTTGGG | 0.03
111 | GCAGTCACGTGGTTAG | -0.06
112 | TAGATCACGTGACGTT | 0.37
113 | TCTTGCACGTGGCTGA | 0.05
114 | AGCATCACGTGGAGTG | 0.08
115 | GTGTTCACGTGTGTGA | 0.26
116 | TGGGCCACGTGGCTAG | -0.09
117 | CGGGACACGTGTGTTT | 0.05
118 | TTTGGCACGTGTGATT | 0.06
119 | GTGGTCACGTGGATTC | 0.33
120 | ATTGGCACGTGTGTTG | -0.08
121 | TACGGCACGTGTCGTG | -0.11
122 | TTGTCCACGTGAAGGG | 0.34
123 | TGTGTCACGTGGACCG | -0.03
124 | CTGGGCACGTGTCGGT | -0.07
125 | TCTTTCACGTGCAGTT | 0.23

Row | Sequence | relative binding free energy [kcal/mol]
126 | GGAGTCACGTGTTGGT | 0.19
127 | GGAATCACGTGGAGAT | 0.2
128 | TGAGTCACGTGAGATT | 0.3
129 | GTAAGCACGTGTGAAT | 0.04
130 | CATCACACGTGGGTGG | -0.03
131 | TATGGCACGTGTGCAT | -0.09
132 | TCTCTCACGTGTGGGG | 0.2
133 | CAGGGCACGTGTTTTT | -0.16
134 | TATATCACGTGTGAAG | 0.33
135 | GTGTGCACGTGGCGGA | -0.06
136 | AGATGCACGTGTGTCA | 0.12
137 | GGCTGCACGTGGGGCG | -0.12
138 | ATATGCACGTGTTAAA | -0.1
139 | CAGAACACGTGTGGGT | 0.07
140 | AGGAGCACGTGGCAGT | -0.38
141 | ACAAGCACGTGGGTTT | -0.18
142 | AATGACACGTGTAGGT | 0.02
143 | TCTAGCACGTGGAGTG | -0.18
144 | ATTTACACGTGGATTA | 0.21
145 | GTTTGCACGTGTAGAA | 0.13
146 | TGGTCCACGTGGTTGA | 0.01
